According to US20030219427A1 (BASF AKTIENGESELLCHAFT, published 2003):

How the values were obtained:
[1] = target: T1, HA-p105Δ498-541; ΔDD (Homo sapiens (Human), UniProt P19838 1-968); assay: anti-HA co-immunoprecipitation from co-transfected 293 cells
T1 construct: limits combined from the two single deletions
T1 sequence: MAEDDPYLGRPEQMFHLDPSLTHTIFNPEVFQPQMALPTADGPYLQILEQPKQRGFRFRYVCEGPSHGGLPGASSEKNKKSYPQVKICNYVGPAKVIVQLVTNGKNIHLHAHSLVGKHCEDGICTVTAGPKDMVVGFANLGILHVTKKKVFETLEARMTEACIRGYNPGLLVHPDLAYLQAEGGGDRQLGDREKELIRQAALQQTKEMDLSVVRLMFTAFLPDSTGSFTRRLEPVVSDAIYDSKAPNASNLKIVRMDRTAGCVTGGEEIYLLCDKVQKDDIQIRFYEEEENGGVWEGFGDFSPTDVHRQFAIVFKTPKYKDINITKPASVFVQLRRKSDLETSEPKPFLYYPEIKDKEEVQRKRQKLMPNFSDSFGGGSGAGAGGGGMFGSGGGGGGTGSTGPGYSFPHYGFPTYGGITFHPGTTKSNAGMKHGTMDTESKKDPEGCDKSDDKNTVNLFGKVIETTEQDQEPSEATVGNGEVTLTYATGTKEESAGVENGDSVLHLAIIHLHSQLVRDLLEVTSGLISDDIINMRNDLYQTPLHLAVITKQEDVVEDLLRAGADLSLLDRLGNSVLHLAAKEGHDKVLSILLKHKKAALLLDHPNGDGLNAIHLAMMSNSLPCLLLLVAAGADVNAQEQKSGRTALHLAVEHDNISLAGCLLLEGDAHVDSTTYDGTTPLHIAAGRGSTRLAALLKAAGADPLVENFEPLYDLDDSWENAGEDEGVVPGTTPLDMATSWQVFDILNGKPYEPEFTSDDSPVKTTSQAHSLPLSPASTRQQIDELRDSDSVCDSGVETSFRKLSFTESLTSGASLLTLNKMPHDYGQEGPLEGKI
Procedure: (§1) Cell lysates were prepared using Buffer A (Beinke, S, et al. (2002) J. Biol. Chem. 277: 24162-24168). Immunoprecipitation and Western blotting of transfected proteins were carried out as described (Kabouridis, P. S., et al. 1997. EMBO J. 16:4983-4998), using the indicated antibodies.
(§2) These p105 constructs and HA-p105 constructs in which the p105 DD alone was mutated (HA-p105ΔDD and HA-p105L842A) were individually co-expressed with wild type TPL-2 in 293 cells and immunoprecipitated from cell lysates with anti-HA antibody. The extent of co-immunoprecipitation of TPL-2 was reduced by deletion or point mutation of the DD compared with wild type HA-p105. […] However, no association of TPL-2 was detected with either of the double binding site mutants. […] Thus, each of the identified binding sites makes a substantial contribution to TPL-2 association with p105 in vivo and both are required for optimal complex formation.

[2] = target: T2, HA-p105Δ498-541; L842A (Homo sapiens (Human), UniProt P19838 1-968); assay: as above
T2 sequence: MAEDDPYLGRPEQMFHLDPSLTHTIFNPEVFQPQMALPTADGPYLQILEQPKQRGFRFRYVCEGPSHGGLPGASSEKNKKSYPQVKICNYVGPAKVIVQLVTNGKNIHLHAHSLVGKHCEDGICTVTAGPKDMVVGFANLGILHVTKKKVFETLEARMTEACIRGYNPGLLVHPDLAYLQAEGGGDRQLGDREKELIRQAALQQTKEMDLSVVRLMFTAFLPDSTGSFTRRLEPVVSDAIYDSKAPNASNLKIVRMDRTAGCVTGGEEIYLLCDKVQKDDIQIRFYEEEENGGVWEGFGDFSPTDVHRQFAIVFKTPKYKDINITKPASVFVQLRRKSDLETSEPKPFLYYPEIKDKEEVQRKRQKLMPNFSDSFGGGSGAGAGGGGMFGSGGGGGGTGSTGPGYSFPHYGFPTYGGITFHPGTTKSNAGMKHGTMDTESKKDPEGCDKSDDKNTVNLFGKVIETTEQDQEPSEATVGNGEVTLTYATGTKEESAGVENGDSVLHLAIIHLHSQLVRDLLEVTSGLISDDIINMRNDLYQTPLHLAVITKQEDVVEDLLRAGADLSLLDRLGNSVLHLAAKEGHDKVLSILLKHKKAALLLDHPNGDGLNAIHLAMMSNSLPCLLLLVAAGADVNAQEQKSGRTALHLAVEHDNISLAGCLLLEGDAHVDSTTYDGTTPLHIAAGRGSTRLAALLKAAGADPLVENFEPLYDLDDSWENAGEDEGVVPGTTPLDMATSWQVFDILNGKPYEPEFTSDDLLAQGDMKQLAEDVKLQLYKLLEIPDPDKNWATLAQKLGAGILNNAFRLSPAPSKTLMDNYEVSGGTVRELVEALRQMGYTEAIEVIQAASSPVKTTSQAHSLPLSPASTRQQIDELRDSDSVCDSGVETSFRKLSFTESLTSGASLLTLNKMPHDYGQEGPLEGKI
Procedure: as §1, §2

[3] = target: T3, NF-κB1 p105 (Homo sapiens (Human), UniProt P19838 1-968); assay: complex isolated with anti-TPL-2 antibody from in vitro translation with p105 in excess
T3 construct: Untagged p105 translated in vitro (cDNA of Blank et al. 1991 in pRc-CMV); also called untagged p105
T3 sequence: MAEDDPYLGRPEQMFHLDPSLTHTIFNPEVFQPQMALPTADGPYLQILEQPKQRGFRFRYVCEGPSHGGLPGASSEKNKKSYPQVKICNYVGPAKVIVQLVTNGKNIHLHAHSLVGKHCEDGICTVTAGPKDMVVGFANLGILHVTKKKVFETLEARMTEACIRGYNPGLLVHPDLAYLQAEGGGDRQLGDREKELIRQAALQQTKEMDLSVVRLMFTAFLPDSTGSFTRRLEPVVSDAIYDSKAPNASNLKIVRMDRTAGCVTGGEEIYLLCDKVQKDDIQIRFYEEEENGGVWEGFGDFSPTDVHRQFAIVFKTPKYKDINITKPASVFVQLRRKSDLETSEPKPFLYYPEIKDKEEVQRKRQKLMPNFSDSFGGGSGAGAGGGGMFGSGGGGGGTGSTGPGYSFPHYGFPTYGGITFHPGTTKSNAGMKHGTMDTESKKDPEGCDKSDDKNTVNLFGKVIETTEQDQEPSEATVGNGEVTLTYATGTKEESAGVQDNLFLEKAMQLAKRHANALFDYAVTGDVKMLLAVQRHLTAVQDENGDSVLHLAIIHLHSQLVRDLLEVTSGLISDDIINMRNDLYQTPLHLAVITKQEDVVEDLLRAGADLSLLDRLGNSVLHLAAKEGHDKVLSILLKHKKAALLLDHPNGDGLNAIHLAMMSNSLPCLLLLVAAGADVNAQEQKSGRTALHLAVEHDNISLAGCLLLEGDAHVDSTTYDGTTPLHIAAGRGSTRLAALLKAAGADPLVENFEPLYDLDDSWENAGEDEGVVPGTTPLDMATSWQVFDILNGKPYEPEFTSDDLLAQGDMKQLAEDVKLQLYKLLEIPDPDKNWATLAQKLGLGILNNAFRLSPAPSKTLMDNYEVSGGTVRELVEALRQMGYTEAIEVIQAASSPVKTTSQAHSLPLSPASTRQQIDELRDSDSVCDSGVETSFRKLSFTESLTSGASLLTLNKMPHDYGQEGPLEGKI
Procedure: 32 out of 68 positive clones obtained encode the IκB-like C-terminus of NF-κB1 p105 (FIG. 2a). Co-immunoprecipitation of p105 with TPL-2, synthesized together by cellfree translation, confirms that the two proteins interact at high stoichiometry (FIG. 1b). TPL-2 and p105 are synthesized together, and labeled with [³⁵S]-Met (Amersham-Pharmacia Biotech), by cell-free translation using the Promega TNT coupled rabbit reticulocyte system. Translated proteins are diluted in lysis buffer A (Salmeron, A., et al. (1996) EMBO J 15: 817-826) plus 0.1 mg/ml BSA and immunoprecipitated as described in the above-cited reference.

[4] = target: T4, HA-p100 (UniProt Q00653 1-900); assay: co-expression in HEK 293 cells
T4 sequence (looked up): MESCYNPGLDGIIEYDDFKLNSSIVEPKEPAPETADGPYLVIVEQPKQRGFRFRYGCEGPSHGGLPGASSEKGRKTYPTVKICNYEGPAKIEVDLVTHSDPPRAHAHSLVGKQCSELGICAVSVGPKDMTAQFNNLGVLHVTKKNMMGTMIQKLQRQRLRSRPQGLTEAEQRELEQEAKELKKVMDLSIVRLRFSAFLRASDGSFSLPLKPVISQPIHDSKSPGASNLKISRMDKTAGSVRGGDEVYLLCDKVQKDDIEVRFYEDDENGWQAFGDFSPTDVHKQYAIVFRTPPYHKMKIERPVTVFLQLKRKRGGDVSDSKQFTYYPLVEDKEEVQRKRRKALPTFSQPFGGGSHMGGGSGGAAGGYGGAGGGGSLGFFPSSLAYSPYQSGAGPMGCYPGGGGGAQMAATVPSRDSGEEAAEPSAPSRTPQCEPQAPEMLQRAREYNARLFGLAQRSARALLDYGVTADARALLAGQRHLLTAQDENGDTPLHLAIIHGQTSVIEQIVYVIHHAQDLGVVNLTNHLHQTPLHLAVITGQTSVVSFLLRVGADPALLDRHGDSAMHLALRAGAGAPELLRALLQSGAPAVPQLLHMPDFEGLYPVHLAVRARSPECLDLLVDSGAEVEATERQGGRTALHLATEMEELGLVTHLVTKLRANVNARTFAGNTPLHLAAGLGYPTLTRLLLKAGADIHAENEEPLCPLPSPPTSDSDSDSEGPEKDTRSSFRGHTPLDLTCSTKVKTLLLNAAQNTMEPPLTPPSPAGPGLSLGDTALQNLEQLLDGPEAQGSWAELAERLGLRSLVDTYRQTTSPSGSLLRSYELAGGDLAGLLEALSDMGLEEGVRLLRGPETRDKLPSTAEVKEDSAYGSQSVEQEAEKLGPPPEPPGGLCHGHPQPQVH
Procedure: as §1

B1: TPL-2 (enzyme)
chain: not shown
notes: also called full length TPL-2; wild type TPL-2
binding result [1]: no binding
binding result [2]: no binding
stoichiometry of the TPL-2/p105 complex [3]: ~1 TPL-2:p105
binding result [4]: no binding
